Among the data in the RNAGym collection of RNA variant scans (doi:10.1093/nar/gkz1192) are self-cleavage values, retold here.

Read counts are not given, so values of variants with three or more changes are uncertain.

The labels stand for the following.
B1: CPEB3 Ribozyme (parent)
chain: UAACAGGGGGCCACAGCAGAAGCGUUCACGUCGCAGCCCCUGUCAGAUUCUGGUGAAUCUGCGAAUUCUGCUGUAUAUCUC

Variants of B1 are the subject of this data set. The data set can be described thus: self-cleavage, relative activity (ratio to wild type); higher = more cleavage; in vitro, sequencing. The method in brief:
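Libraries of CPEB3 self-cleaving ribozyme mutants came from rounds of error-prone PCR and carried barcodes, which DNA sequencing matched to variants. In vitro transcription used T7 RNA polymerase at 37°C for 5 hours, with a further 15 min in DNase I before EDTA stopped the reaction; the ribozymes cleaved during both steps. The RNA was reverse transcribed with template switching and sequenced on Illumina. Relative activity is the cleaved/total read fraction of a variant divided by that of the unmutated ribozyme, averaged over three batches with at least 5 reads.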
Consider UAACAGGGAGCCACAGCAGAAGCGUUCACGUCGCUGCCCCUGUCAGAUUCUGGUGAGUCUGCGAAUUCUGCUGUAUAUCUC [G9A A35U A57G], for which the self-cleavage stood at 0.08. In the case of UAACAGGGAGCCACAGCAGAAGCGUUCUCGUCGCAGCCCCCGUCAGACUCUGGUGAAUCUGCGAAUUCUGCAGUAAAUCUC [G9A A28U U41C U48C U72A U76A] it was 0.05; in that of UAACAGGGAGCCACAGCAGAGGCGCUCACGUCGCAGCCCCUGUCAGAUUCUGGUGAAUCUGCGAAUUCUGCUGUAUAUCUC [G9A A21G U25C], 0.31.

Regarding UAACAGGGAGCCACAGCAGAAGCGUUCACGUCGCGGCUCCUGUCAGAUUCGGGUGAAUCUGCGAAUUCUGCUGUAUAUCUC [G9A A35G C38U U51G], the self-cleavage turned out to be 1.28. In the case of UAACAGGGAGCCACAGCUGGAGCGUUCACGUCGCAGCCCCUGUCAGAUUCAGGUGUAUCUGCGAAUUCUGCUGUAUAUCUC [G9A A18U A20G U51A A56U] it was 0.06; in that of UAACAGGGAGCCACAGCAGAAGCGUUCACGUCGCAGCCCCUGUCGGAUUUUGGUGAAUCUGCGAAUUCUGCUGUAUAUCCC [G9A A45G C50U U80C], 0.33; in that of UAACAGGGAGCCACAGCAGAAGCGUUCACGUCGCUGCCCCUGUCAGAUUCUGGUGAAUCUGCGAAUUCCGCUGUAUAUCUC [G9A A35U U69C], 0.05. To UAACAGGGAGCCACAGCAGGAGCGUUCACGUCGCAGCCCCUGUCAGAUUCCGGUGAAUCAGCGAAUUCUGCUGUAUAUCUC [G9A A20G U51C U60A] belongs 0.11; to UAACAGGGAGCCACAGCAGAAGCGUUCGCGCCGCAGCCCCUGACAGAUUCUGGUGAAUCUGCGAAUUCUGCGGUAUAUCUC [G9A A28G U31C U43A U72G], 0.23; to UAACAGGGAGCCACAGCAGUAGCGUUCACGUCGCAGCCCCUGUCAGAUUCUGGUGAAUCUGCGAAUUCUGCUGUAUACCUC [G9A A20U U78C], 0.22. In the case of UAACAGGGAGCCACAGCUGAAGCGAUCGCGUCGCAGCCCCUGUCAGAUUCUGGUGAACCUGCGAAUUCUGCUGUAUAUCUC [G9A A18U U25A A28G U58C] it was 0.12. Turning to UAACAGGGAGCCACAGCAGAUGCGUUCACGUCGCAGCACCUGUCAGAUUCUGGUGAAUCUGCGAAUUCUGCUGUAUAUCUC [G9A A21U C38A], the self-cleavage amounted to 0.17.

On to UAACAGGGAGCCACAGCGGAAGCGUUCACGUCGCAGCCCCUGUCAGAUUCUGGUGAAUCUGCGAAUUCUGCCGUAUAUCUC [G9A A18G U72C], for which the self-cleavage stood at 0.28.

Regarding UAACAGGGAGCCACAGCAGAAGCGUUCACGUCGCAGCCCCUGUCAGGUUCUGGUGAGUAUGCGAAUUCUACUGUAUAUCUC [G9A A47G A57G C59A G70A], the self-cleavage is 0.04. To UAACAGGGAGCCACAGCAGUAGCGUUCACGCCGCAGCCCCUGUCGGAUUCUGGUGGAUCUGCCAAUUCUGCUGUAUAUCUC [G9A A20U U31C A45G A56G G63C] belongs 0.04. For the variant UAACAGGGAGCCACAGCAGAAGCGUUCACGUCGCUGCCCCUGUCAGAUUCUGGUGAAUCUGCGAAUUCUGCUGUAUAUCCC [G9A A35U U80C], the self-cleavage worked out at 0.08. On to UAACAGGGAGCCACAGCUGAAGCGUCCGCGUCGCAGCCCCUGUCAGAUUCCGGUGAAUCUGCGAAUUCUGCAGUAUAUCUC [G9A A18U U26C A28G U51C U72A], for which the self-cleavage stood at 0.08. To UAACAGGGAGCCACAGCUGAAGCGUUCACGUCGCAGCCCCUGCCAGAUUCUGGUGAAUCUGCGAAUUCUGCUGUAUAUCUC [G9A A18U U43C] belongs 0.07; to UAACAGGGAGCCACAGCAGAAGCGUUCACGUCGCAGCCCCUGUCAGUUUCUGGUGGUUCUGCGAAUUCUGCUGUAUAUCUC [G9A A47U A56G A57U], 0.15.

Turning to UAACAGGGAGCCACAGCAGAAGCGUUCUCGUCGCAGCCCCUGUCAGAUUCUGGUGAAUCUGCGAGUUCCGCUGUAUAUCUC [G9A A28U A65G U69C], the self-cleavage was 0.17.

In the case of UAACAGGGAGCCACAGCAGAAGCGUUCACGUCGCAGCCCCUGUCAGAUUCUGGUGAAUCUGCGUAUUCUGCCGUAUAUCUC [G9A A64U U72C], the self-cleavage worked out at 0.1. In the case of UAACAGGGAGCCACAGCAGAAGCGUUCACGUCGCAGCCCCUGUCAGAUUCUGGUGAAUCUGCGUAUUCUGCAGUAUAUCUC [G9A A64U U72A] it was 0.1; in that of UAACAGGGAGCCACAGCAGAAGCGUUCACGUCGCAGCCCCUGUCAGGUUCUGGUUAGACUGCGAAUUCUGCAGUAUAUCUC [G9A A47G G55U A57G U58A U72A], 0.05; in that of UAACAGGGAGCCACAGCAGAGGCGUUCACUUCGCAGCCCCUAUCAGAUUCUGGUGAAUCUGCGAAUUCCGCUGUAUAUCCC [G9A A21G G30U G42A U69C U80C], 0.13.

UAACAGGGAGCCACAGCAGGAGCGUUCACGUCGCAACCCCUGUCAGACUCUGGUGAAUCUGCGAAUUCUGCUGUAUAUCUC [G9A A20G G36A U48C]: the self-cleavage turned out to be 0.21. For the variant UAACAGGGAGCCACAGCAGAAGCGUUCACGUCGCAGCCCCUGUCAGAUUCUGGUGAAUCUGCGAGUUCUGUCGUAUAUCUC [G9A A65G C71U U72C], the self-cleavage was 0.12. For the variant UAACAGGGAGCCACAGCGGAAGCGUUCACGUCGCAGCCCCUGUCAGAUUCUGGUGAAUCUGCGAAUCCUGCUGUAUAUCUC [G9A A18G U67C], the self-cleavage amounted to 0.31. In the case of UAACAGGGAGCCACAGCAGAAGCGUUCACGUCGCAGCCCCUGUCUGAUCCUGGUGAAUCUGCGAAUUCUGCUGUAUAUCUC [G9A A45U U49C] it was 0.14. In the case of UAACAGGGAGCCACAGCAGGAGCGUCCACGUCGCAGCCCCUGUCAGAUACUGGUGAAUCUGCGAAUUCUGCUGUAUAUCUC [G9A A20G U26C U49A] it was 0.06; in that of UAACAGGGAGCCACAGCUGAAGCGCUCACGUCGCAGCCCCCGUCAGAUUCUGGUGAAUCUGCGAAUUCCGCUGUUUAUCUC [G9A A18U U25C U41C U69C A75U], 0.05; in that of UAACAGGGAGCCACAGCAGAAGCGUUCGCGUCGCAGCCCCUGUCAGAUUCUGUUGAAUCUGCGAAUUCUGCUGUAUAUCUC [G9A A28G G53U], 0.06.

Turning to UAACAGGGAGCCACAGCAGAAGCGUUCACGUCGCUGCCCCUGUCAGAUUCUGGUGAAUCCGCGAAUUCUGCUGUAUAUCUC [G9A A35U U60C], the self-cleavage stood at 0.11. As to UAACAGGGAGCCACAGCAGAAGCGUUCUCGUCGCAGCCCCCGUCAGAUUCUGGUGAAUCUGCGAAUUCUGCUGUAUAUCUC [G9A A28U U41C], the self-cleavage stood at 0.18. To UAACAGGGAGCCACAGCAGAAGCGUUCGCGUCGCAGCCCCUGUCAGGUUCUGGUGAAUCUGCGAAUUCUGCUGUAAAUCUC [G9A A28G A47G U76A] belongs 0.24.
